Where a chain is given by its changes, count along the chain named. Some of the results follow.

Data on 20 molecules can be found in paper PMC9911399, “Two distinct binding modes provide the RNA-binding protein RbFox with extraordinary sequence specificity”.

B1: ACAGCCC (DNA:RNA)
RNA: GGGAGACCGGAAUUCAGAUUGUCCACAGCCCUUAAAUCCCGUCGUAGCCACCA
DNA 1: CAATCTGAATTCCGGTCTCCC
DNA 2: TGGTGGCTACGACGGGATT
B2: UGUGGUU (DNA:RNA)
RNA: B1 RNA with A25U, C26G, A27U, C29G, C30U, C31U
DNA 1: CAATCTGAATTCCGGTCTCCC
DNA 2: TGGTGGCTACGACGGGATT
B3: AGCUAAA (DNA:RNA)
RNA: B1 RNA with C26G, A27C, G28U, C29A, C30A, C31A
DNA 1: CAATCTGAATTCCGGTCTCCC
DNA 2: TGGTGGCTACGACGGGATT
B4: UGGAAGA (DNA:RNA)
RNA: GGGAGACCGGAAUUCAGAUUGUCCUGGAAGAUUAAAUCCCGUCGUAGCCACCA
DNA 1: CAATCTGAATTCCGGTCTCCC
DNA 2: TGGTGGCTACGACGGGATT
B5: GCCGCUG (DNA:RNA)
RNA: B1 RNA with A25G, A27C, C30U, C31G
DNA 1: CAATCTGAATTCCGGTCTCCC
DNA 2: TGGTGGCTACGACGGGATT
B6: GGGCCCU (DNA:RNA)
RNA: B1 RNA with A25G, C26G, A27G, G28C, C31U
DNA 1: CAATCTGAATTCCGGTCTCCC
DNA 2: TGGTGGCTACGACGGGATT
B7: AGGGGGA (DNA:RNA)
RNA: B4 RNA with U25A, A28G, A29G
DNA 1: CAATCTGAATTCCGGTCTCCC
DNA 2: TGGTGGCTACGACGGGATT
B8: CGUUCUC (DNA:RNA)
RNA: B1 RNA with A25C, C26G, A27U, G28U, C30U
DNA 1: CAATCTGAATTCCGGTCTCCC
DNA 2: TGGTGGCTACGACGGGATT
B9: UGCGCAU (DNA:RNA)
RNA: B1 RNA with A25U, C26G, A27C, C30A, C31U
DNA 1: CAATCTGAATTCCGGTCTCCC
DNA 2: TGGTGGCTACGACGGGATT
B10: UCUGGGA (DNA:RNA)
RNA: B4 RNA with G26C, G27U, A28G, A29G
DNA 1: CAATCTGAATTCCGGTCTCCC
DNA 2: TGGTGGCTACGACGGGATT
B11: UUCUGCG (DNA:RNA)
RNA: B1 RNA with A25U, C26U, A27C, G28U, C29G, C31G
DNA 1: CAATCTGAATTCCGGTCTCCC
DNA 2: TGGTGGCTACGACGGGATT
B12: UUGGCGU (DNA:RNA)
RNA: B4 RNA with G26U, A28G, A29C, A31U
DNA 1: CAATCTGAATTCCGGTCTCCC
DNA 2: TGGTGGCTACGACGGGATT
B13: UAAUAAC (DNA:RNA)
RNA: B1 RNA with A25U, C26A, G28U, C29A, C30A
DNA 1: CAATCTGAATTCCGGTCTCCC
DNA 2: TGGTGGCTACGACGGGATT
B14: UGCGCUG (DNA:RNA)
RNA: B1 RNA with A25U, C26G, A27C, C30U, C31G
DNA 1: CAATCTGAATTCCGGTCTCCC
DNA 2: TGGTGGCTACGACGGGATT
B15: CAUCGCU (DNA:RNA)
RNA: B1 RNA with A25C, C26A, A27U, G28C, C29G, C31U
DNA 1: CAATCTGAATTCCGGTCTCCC
DNA 2: TGGTGGCTACGACGGGATT
B16: GAUGCCA (DNA:RNA)
RNA: B1 RNA with A25G, C26A, A27U, C31A
DNA 1: CAATCTGAATTCCGGTCTCCC
DNA 2: TGGTGGCTACGACGGGATT
B17: CGCAAUC (DNA:RNA)
RNA: B4 RNA with U25C, G27C, G30U, A31C
DNA 1: CAATCTGAATTCCGGTCTCCC
DNA 2: TGGTGGCTACGACGGGATT
B18: AAUGUAG (DNA:RNA)
RNA: B1 RNA with C26A, A27U, C29U, C30A, C31G
DNA 1: CAATCTGAATTCCGGTCTCCC
DNA 2: TGGTGGCTACGACGGGATT
B19: GUUGGGA (DNA:RNA)
RNA: B4 RNA with U25G, G26U, G27U, A28G, A29G
DNA 1: CAATCTGAATTCCGGTCTCCC
DNA 2: TGGTGGCTACGACGGGATT
B20: CCAAUAG (DNA:RNA)
RNA: B1 RNA with A25C, G28A, C29U, C30A, C31G
DNA 1: CAATCTGAATTCCGGTCTCCC
DNA 2: TGGTGGCTACGACGGGATT

The test deals with T1, RBFOX1 RRM (Homo sapiens, UniProt Q9NWB1 109-208).
T1 sequence: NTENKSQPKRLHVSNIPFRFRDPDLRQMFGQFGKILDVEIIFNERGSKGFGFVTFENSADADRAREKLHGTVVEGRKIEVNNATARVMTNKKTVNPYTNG
The experiment in a line: EMSA; HiTS-Eq, 1 nM pool, 10 min; buffer printed only for the single-RNA assays: 10 mM Tris pH 7.5, 150 mM NaCl, 3.4 mM EDTA, 0.001% NP-40, 30 C. Particulars: tags: His6 N-terminal (pET28a); label: 5' 32P. The method in brief:
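Purified RbFox RRM (wild type or mutant) was equilibrated for 10 min in 50 µL with 1 nM of a 5′-radiolabelled pool of RNA with 7 randomized nucleotides, its flanks annealed to DNA oligonucleotides, across increasing protein concentrations. Free RNA was separated by 8% native PAGE, excised, reverse-transcribed, PCR-barcoded and sequenced on an Illumina HiSeq 2500. Relative association constants came from read-count changes of each variant against the control reaction, normalised to the cognate motif.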
Regarding B1, the binding signal is 0.0021 KA relative to UGCAUGU.

Consider B2, for which the binding signal was 0.0316 KA relative to UGCAUGU.

Turning to B3, the binding signal is 0.00178 KA relative to UGCAUGU.

Turning to B4, the binding signal is 0.0212 KA relative to UGCAUGU.

In the case of B5, the binding signal is 0.0218 KA relative to UGCAUGU.

As for B6, the binding signal is 0.00615 KA relative to UGCAUGU.

Turning to B7, the binding signal was 0.0149 KA relative to UGCAUGU.

With B8, the binding signal is 0.0102 KA relative to UGCAUGU.

For the molecule B9, the binding signal is 0.0197 KA relative to UGCAUGU.

For B10, the binding signal is 0.00462 KA relative to UGCAUGU.

B11: the binding signal was 0.0227 KA relative to UGCAUGU.

For the molecule B12, the binding signal is 0.026 KA relative to UGCAUGU.

B13: the binding signal is 0.004 KA relative to UGCAUGU.

Take B14: the binding signal was 0.031 KA relative to UGCAUGU.

As for B15, the binding signal was 0.00424 KA relative to UGCAUGU.

With B16, the binding signal was 0.00795 KA relative to UGCAUGU.

On to B17, for which the binding signal was 0.0042 KA relative to UGCAUGU.

With B18, the binding signal is 0.00936 KA relative to UGCAUGU.

For the molecule B19, the binding signal is 0.0102 KA relative to UGCAUGU.

Turning to B20, the binding signal was 0.00034 KA relative to UGCAUGU.
